# Experimental data: PMC4336329 (PLoS ONE, 2015)
# Screen size: about 310,000 compounds; about 14,000 (4.5%) showed an effect of 50% or more. Effects have a minus sign here. The list shows a part of the results.
# Target: human ether-à-go-go-related gene (hERG) potassium channel (human, UniProt Q12809)
# Experiment: primary screen, population patch clamp on CHO cells stably expressing hERG
# 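Note: peak tail current of the secondary pulse compared with the same well before compound.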
# Sequence of human ether-à-go-go-related gene (hERG) potassium channel (Q12809 whole entry, looked up): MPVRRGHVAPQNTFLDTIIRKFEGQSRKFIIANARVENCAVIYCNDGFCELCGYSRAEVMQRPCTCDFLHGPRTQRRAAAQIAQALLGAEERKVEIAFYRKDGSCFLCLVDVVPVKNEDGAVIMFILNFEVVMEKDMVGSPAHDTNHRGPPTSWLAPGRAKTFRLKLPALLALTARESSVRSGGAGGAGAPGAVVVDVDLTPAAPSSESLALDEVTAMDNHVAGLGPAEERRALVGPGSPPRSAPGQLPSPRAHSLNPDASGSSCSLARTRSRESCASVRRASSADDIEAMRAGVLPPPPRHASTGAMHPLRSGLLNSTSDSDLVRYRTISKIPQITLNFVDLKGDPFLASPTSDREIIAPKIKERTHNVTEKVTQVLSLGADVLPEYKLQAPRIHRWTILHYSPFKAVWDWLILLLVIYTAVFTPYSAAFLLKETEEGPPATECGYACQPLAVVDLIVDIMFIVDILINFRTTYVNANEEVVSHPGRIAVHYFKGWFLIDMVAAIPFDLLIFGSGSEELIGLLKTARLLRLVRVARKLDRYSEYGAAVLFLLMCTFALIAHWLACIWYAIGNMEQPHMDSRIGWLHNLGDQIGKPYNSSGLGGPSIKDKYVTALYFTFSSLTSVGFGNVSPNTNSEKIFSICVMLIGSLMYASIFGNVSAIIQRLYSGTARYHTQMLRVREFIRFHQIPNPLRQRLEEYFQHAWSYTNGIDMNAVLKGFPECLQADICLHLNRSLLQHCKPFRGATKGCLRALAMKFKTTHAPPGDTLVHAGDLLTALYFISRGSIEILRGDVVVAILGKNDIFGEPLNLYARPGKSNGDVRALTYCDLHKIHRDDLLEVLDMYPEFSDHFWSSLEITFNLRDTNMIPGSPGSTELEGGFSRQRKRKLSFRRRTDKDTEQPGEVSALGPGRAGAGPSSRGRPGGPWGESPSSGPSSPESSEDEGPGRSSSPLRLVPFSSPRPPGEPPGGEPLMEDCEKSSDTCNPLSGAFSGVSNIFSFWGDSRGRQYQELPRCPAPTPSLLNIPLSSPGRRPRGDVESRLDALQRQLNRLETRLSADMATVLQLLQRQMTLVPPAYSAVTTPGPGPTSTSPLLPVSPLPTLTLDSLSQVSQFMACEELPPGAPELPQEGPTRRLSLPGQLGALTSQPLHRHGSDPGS
row,Structure (SMILES),"hERG current change (%, negative = inhibition) at 10uM"
1,Nc1c(N(CCC2=CCCCC2)C(=O)C2CC2)c(=O)[nH]c(=O)n1Cc1ccccc1,-3.26%
2,COCc1nnc(NC(=O)CSc2ccccc2)s1,-21.4%
3,COc1cc(NC(=S)N2CCC(C(N)=O)CC2)cc(OC)c1,-12.1%
4,CCOC(=O)NC(=S)c1ccc[nH]1,5.4%
5,COc1ccccc1N(C(=O)Cn1nnc2ccccc21)C(C(=O)NCc1ccco1)c1ccc(C)o1 (stereo not drawn),-2.8%
6,CCN(CC)S(=O)(=O)c1cc(NC(=O)CCNC(=O)c2ccco2)ccc1C,0.915%
7,Cc1ccc(CC(=O)N2CCN(S(=O)(=O)c3ccccc3)CC2)cc1C,-55.5%
8,CSc1nc(C)cc(SCC(=O)Nc2ccccc2)n1,-13.3%
9,CCOC(=O)C1CCCN(C(=O)CCCn2nc(C)n3c(cc4sccc43)c2=O)C1 (stereo not drawn),-49.3%
10,Cc1ccnc(NS(=O)(=O)c2ccc(N3C(=O)C4CCCCC4C3=O)cc2)n1 (stereo not drawn),22.9%
11,Cc1cc(C)n(C(=O)c2cccc(S(=O)(=O)N3CCCCC3)c2)n1,-19.3%
12,N#CC(C#N)=NNc1ccc(-n2ccc(C(F)(F)F)n2)cc1,-37.7%
13,COCCn1c(=O)[nH]c2cc(C(=O)N3CCN(c4cc(C)ccc4C)CC3)ccc2c1=O,4.61%
14,Cc1cc(C)c(CN2CCCC(CNC(=O)c3ccc(F)cc3)C2)c(-n2cccn2)c1 (stereo not drawn),-75.6%
15,O=C(COc1ccc(-c2ccccc2)cc1)N/N=C/c1ccccc1Br,19.7%
16,Clc1ccccc1CSc1nnc(-c2ccccn2)n1Cc1ccco1,-0.318%
17,NC(=S)N/N=C1\CCOc2ccc(F)cc21,-76.9%
18,COc1ccc2oc(C(=O)NCCN3CCOCC3)c(C)c2c1OC,4.6%
19,CC(C)(C)c1cc(C(=O)NCCN2CCCC2)cc(C(C)(C)C)c1,4.49%
20,Fc1ccc(C2=Nn3c(nnc3-c3ccco3)SC2)cc1,13%
21,O=[N+]([O-])c1ccccc1S(=O)(=O)c1ccccc1,8.29%
22,COc1cccc(C(=O)Nc2ccc(N3CCN(S(C)(=O)=O)CC3)cc2)c1,24.5%
23,CCc1cccc(C)c1NC(=O)CCCn1c(=O)c2cccn2c2cccnc21,-12.7%

row,Structure (SMILES),"hERG current change (%, negative = inhibition) at 10uM"
1,CCCCCCCN=C(C)c1ccccc1O,13.5%
2,CC(=O)Nc1cc2c(cc1C(=O)c1ccccc1)OCCO2,-1.86%
3,CC(=O)c1ccc(OC(=O)c2nc(-c3ccccc3)oc2C)cc1,22%
4,O=C(CN1C(=O)C2CC=CCC2C1=O)Nc1nc2ccccc2[nH]1 (stereo not drawn),10.4%
5,O=C(NNc1ccccc1[N+](=O)[O-])Nc1ccccc1,1.34%
6,CCN(CC)C(=O)COc1coc(CN2CCN(c3cccc(Cl)c3)CC2)cc1=O,-16.3%
7,O=C(Nc1ccc(Cl)c(S(=O)(=O)N2CCCCC2)c1)c1ccco1,-5.95%
8,Cc1cc(/C=C2/NC(=O)NC2=O)c(C)n1C,12.9%
9,COc1ccccc1N1CCN(C(=O)c2ccc(Cl)c(S(=O)(=O)N3CCOCC3)c2)CC1,-10.9%
10,CCN(CC)S(=O)(=O)c1cccc(N2CC(O)=C(c3ccccc3)C2=N)c1,2.53%
11,O=C(NCCc1nc(-c2ccccc2Cl)no1)C1CCCCC1,-0.163%
12,COc1cc(NC(=O)Cc2ccc([N+](=O)[O-])cc2)c(C(=O)O)cc1OC,-0.778%
13,Cc1cccc(C(=O)NNC(=O)c2ccccc2)c1,17.7%
14,COc1ccc(Cc2nnc(SCC(=O)Nc3ccccc3C#N)o2)cc1,-3.13%
15,C/C(=N\NC(=O)C1CC1)c1ccccc1O,0.248%
16,Cc1ccc2nc(NC(=O)CSc3nnc(C)c(=O)n3N)sc2c1,2.09%
17,CCCCCC(=O)N/N=C(\C)c1ccc(NC(=O)c2ccco2)cc1,5.94%
18,CN1CCN(CCP(=O)(c2ccccc2)c2ccccc2)CC1,4.63%
19,Cc1ccc(NC(=O)C2CCCN(S(=O)(=O)c3ccc(-n4cnnn4)cc3)C2)cc1 (stereo not drawn),-23.6%
20,O=C1CCCc2c1[nH]c1ccc(Br)cc21,19.2%
21,Cc1ccc(S(=O)(=O)Nc2ccc(-n3cnnn3)cc2)cc1,-1.93%
22,Cc1ccc(-n2c(SCC(=O)Nc3ccc4c5c(cccc35)CC4)nc(O)cc2=O)cc1,14.7%
23,CCc1nnc(NC(=O)C2CCCN2C(=O)NC2CCCCC2)s1 (stereo not drawn),10.4%

row,Structure (SMILES),"hERG current change (%, negative = inhibition) at 10uM"
1,Cc1ccc(C)c(NC(=O)c2ccccc2NS(=O)(=O)c2cc([N+](=O)[O-])ccc2C)c1,9.09%
2,O=C(CC1C(=O)NCCN1Cc1ccc(-c2ccccc2)cc1)NCC1CCOCC1 (stereo not drawn),-9.78%
3,CCN=c1scc(C)n1/N=C/c1ccsc1,-12.6%
4,Cc1oc(-c2ccc(Cl)cc2)nc1CN1CCC(C(=O)NCc2ccco2)CC1,-71.2%
5,Cc1cccc(-n2c(Cc3ccccc3)n[nH]c2=S)c1,-0.23%
6,Cc1cc(C)c(S(=O)(=O)Nc2ccc(OCC(=O)O)cc2)c(C)c1,6.93%
7,CNc1nc(-c2ccc3c(c2)CCN3C(=O)CC(C)(C)C)c(C)s1,38%
8,COc1ccc(N2CCN(C(=O)c3oc4c(c3C)C(=O)CCC4)CC2)cc1,6.39%
9,CC1(C)COC(c2coc3ccccc3c2=O)OC1,3.85%
10,Cc1ccc(C(=O)NNC(=O)c2ccncc2)cc1S(=O)(=O)N1CCOCC1,0.578%
11,O=C(NCCCN1CCCC1)Nc1cccc2ccccc12,-12.5%
12,Cc1[nH]n(-c2ccc(Cl)c(Cl)c2)c(=O)c1CCO,10.1%
13,COc1ccc(Nc2cnn(-c3nc4ccccc4s3)c(=O)c2Cl)cc1,-3.58%
14,COc1ccc(C2c3c(oc4ccccc4c3=O)C(=O)N2CC2CCCO2)cc1 (stereo not drawn),-9.56%
15,C=CCN1C(=O)C2(C(C(=O)OCC)=C(N)Oc3ccccc32)C2=C1CCCC2=O (stereo not drawn),1.85%
16,COc1ccc(CN2CCc3ccccc3C2)cc1Br,14.9%
17,OC(CNCc1ccccc1)c1ccccc1 (stereo not drawn),4.68%
18,CC(C)CCN(C)C1CCN(S(=O)(=O)c2ccc(F)cc2)CC1.Cl,-47.7%
19,CCn1c(CNC(=O)Cc2ccc(OC)cc2)nnc1SCCOc1ccccc1,-25.9%
20,CC1CCCCC1NC(=O)CCC(=O)N1CCOc2ccc(Cl)cc21 (stereo not drawn),-4.33%
21,Cc1ccc(NC(=O)CSc2nnc([C@@H]3CCCN3C(=O)OC(C)(C)C)o2)c(C)c1,4.23%
22,COc1ccc(S(=O)(=O)N(C)C)cc1NC(=O)CN1CCN(C(=O)C2CC2)CC1,-2.94%
23,Cc1cc(C=O)c(C)n1-c1ccc(NC2CCCC2)c([N+](=O)[O-])c1,-13.2%

row,Structure (SMILES),"hERG current change (%, negative = inhibition) at 10uM"
1,COc1cccc(-c2csc(N3CCN(Cc4ccccc4)CC3)n2)c1,0.166%
2,CCc1ccc(CN(C)C(=O)c2cc(S(=O)(=O)N3CCN(CC)CC3)ccc2Cl)cc1,-25.3%
3,CS/C(=N\S(=O)(=O)c1ccccc1)c1ccccc1,0.781%
4,O=C(Nc1cc(C(F)(F)F)ccc1Cl)C(Sc1cccc[n+]1[O-])c1ccccc1 (stereo not drawn),-14.5%
5,CCC(=O)N(Cc1cccs1)C1CCOC(C)(C)C1 (stereo not drawn),10.7%
6,COc1ccc(S(=O)(=O)N2CCCCCC2)cc1C(=O)N1CCCC(C(F)(F)F)C1 (stereo not drawn),-37.2%
7,CS(=O)(=O)N(CC(=O)Nc1ccccc1C(=O)N1CCOCC1)c1ccc(F)c(Cl)c1,4.45%
8,OC(c1ccccc1)c1nccn1Cc1ccccc1 (stereo not drawn),-1.07%
9,CNc1nc(SC)nc2ccccc12,25.2%
10,C=C(C)c1cccc(C(C)(C)NC(=O)Nc2ccc3[nH]c(=O)[nH]c3c2)c1,8.14%
11,O=C(CN1CCOCC1)Nc1ccc(N2CCN(c3ccccc3)CC2)c(F)c1,2.59%
12,Cc1[nH]c(C)c(S(=O)(=O)N2CCN(c3cccc(Cl)c3)CC2)c1C(=O)N1CCCC1,-6.94%
13,O=[N+]([O-])c1ccccc1CN1CCN(S(=O)(=O)Cc2ccccc2)CC1,2.17%
14,Cc1nc(Sc2ccc(Cl)cc2)c(C#N)c(C)c1[N+](=O)[O-],6.1%
15,O=C(CSc1ccccc1F)NC1CCS(=O)(=O)C1 (stereo not drawn),23.6%
16,CCOc1cc2c(C#N)c(N3CCCC3)nc(N)c2c(N)n1,3.83%
17,CC(NC(=O)CCSCc1ccccc1F)c1ccccc1 (stereo not drawn),5.91%
18,CCOC(=O)N/N=C(C)/C=C/c1ccco1,15%
19,Cc1cc(C)n(CCOc2nonc2N)n1,3.25%
20,CCN1CCN(C(=O)CN(C)S(=O)(=O)c2ccc3ccccc3c2)CC1,3.38%
21,CCCCn1c(N)c(N(CCOC)C(=O)CN(C)S(=O)(=O)c2ccc(Cl)cc2)c(=O)[nH]c1=O,22.3%
